Experimental data reported in PubChem BioAssay (Tox21).
The shares of active, inactive and inconclusive entries below differ from those in the screen. No potency is given beside an inconclusive call; the fits are too rough. More than one record can exist for a structure, and the calls need not agree. Activity calls are given as the source filed them. Calls follow the shape of the dose curve; as a rule, active = well fitted cell-killing curve with a large enough effect in the repeat runs; inconclusive = weak or mixed curves, or effect the other way; inactive = no such curve, though single readings can be large or run the other way.

Assay: qHTS assay to identify small molecule agonists of the vitamin D receptor (VDR) signaling pathway - cell viability counter screen (AID 743224)
Settings: VDR-bla HEK293T viability, CellTiter-Glo luminescence, 16 h; activity change, negative = cytotoxicity: at 62.6 µM (top of the series)
How it was run: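 Compounds were pin-transferred onto VDR-bla cells plated 4 h earlier; following 16 h incubation at 37C, cell viability was quantified by CellTiter-Glo luminescence after 30 min at room temperature.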
% is scaled to controls: 0 for no effect and ±100 for the full control effect; potency is read from the fitted curve at half-maximal effect; tags tell the direction and shape of the fitted curve.
Also: nearly all actives have a fitted effect of over 50% in size.

SMILES	Potency	activity change, negative = cytotoxicity
Cc1c(C(=O)O)cccc1[N+](=O)[O-]	inconclusive [cytotoxic, single point]	
CCCCOC(=O)CCC(C)=O	inconclusive [cytotoxic, single point]	
O[C@@H](COc1cccc2ncccc12)CN1CCN(C2c3ccccc3[C@@H]3[C@H](c4ccccc42)C3(F)F)CC1 (stereo partly drawn)	inconclusive [cytotoxic, full curve]	
CC(C)NCCCC1(C(N)=O)c2ccccc2-c2ccccc21		inactive: -2.25%
CCCCC(CC)CN1C(=O)C2C3C=CC(C3)C2C1=O (stereo not drawn)	inconclusive [cytotoxic, single point]	
C/C=C/C(=O)CCCC	inconclusive [cytotoxic, partial curve, poor fit]	
C[C@]12CCC(=O)C=C1CC[C@@H]1[C@@H]2C(=O)C[C@@]2(C)[C@H]1CC[C@]2(O)C(=O)CO	active: 24.5 µM	
C/C=C(/C(=C/C)c1ccc(OC(C)=O)cc1)c1ccc(OC(C)=O)cc1	inconclusive [cytotoxic, single point]	
Oc1ccc(CCNCCCCCCNCCc2ccccc2)cc1O	inconclusive [cytotoxic, partial curve, poor fit]	
CN1C[C@H]2c3ccccc3Oc3ccc(Cl)cc3[C@@H]2C1		inactive: -13.2%

Assay: qHTS assay to identify small molecule antagonists of the vitamin D receptor (VDR) signaling pathway - cell viability counter screen (AID 743225)
Settings: VDR-bla HEK293T viability, CellTiter-Glo luminescence, 16 h; viability change, negative = cytotoxic: at 61 µM (top of the series) unless noted
How it was run: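 VDR-UAS-bla HEK 293T cells were plated and incubated 4 h at 37C, then dosed with compound plus 3 nM (final) 1-alpha,25-dihydroxyvitamin D3 for 16 h. After the 2 h beta-lactamase read, viability in the same wells was read as CellTiter-Glo luminescence after 30 min at room temperature.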

SMILES	Potency	viability change, negative = cytotoxic
Nc1cccc(N)c1	inconclusive [rising, partial curve, poor fit]	
CC(=O)c1ccc2c(c1)Cc1ccccc1-2		inactive: -10.5%
CCCCCCOC(=O)c1ccccc1	inconclusive [cytotoxic, full curve, poor fit]	
CN(C)c1ccc(/C=C/c2ccc([N+](=O)[O-])cc2)cc1		inactive: 7.13% [at 6.95 µM]
O[C@@H](COc1cccc2ncccc12)CN1CCN(C2c3ccccc3[C@@H]3[C@H](c4ccccc42)C3(F)F)CC1 (stereo partly drawn)	inconclusive [cytotoxic, partial curve]	
CCCCCCCOC(=O)CCC	inconclusive [cytotoxic, full curve, poor fit]	
CCCCC	inconclusive [rising, full curve]	
N=c1ccn2c(n1)O[C@H]1[C@H](O)[C@@H](CO)O[C@H]12	inconclusive [cytotoxic, single point]	
CCCCC(CC)CN1C(=O)C2C3C=CC(C3)C2C1=O (stereo not drawn)	inconclusive [cytotoxic, full curve]	
Cc1cc(N)c2cc(NC(=O)Nc3ccc4nc(C)cc(N)c4c3)ccc2n1	inconclusive [rising, full curve, poor fit]	
C[C@H](CCC(=O)O)[C@H]1CC[C@H]2[C@@H]3CC[C@@H]4C[C@H](O)CC[C@]4(C)[C@H]3C[C@H](O)[C@]12C	inconclusive [cytotoxic, single point]	
CCC(CC)C(=O)O		inactive: 2.81%
CN(C)c1ccc(C(c2ccccc2)c2ccc(N(C)C)cc2)cc1		inactive: -17.5%
